# Data taken from the BET-seq Pho4 binding data (Le et al. 2018).
# This is one part of the list. Values were computed here from the reads of four pooled replicates and scatter widely.
# Target: T1, Pho4 (S. cerevisiae) (UniProt P07270)
# T1 sequence: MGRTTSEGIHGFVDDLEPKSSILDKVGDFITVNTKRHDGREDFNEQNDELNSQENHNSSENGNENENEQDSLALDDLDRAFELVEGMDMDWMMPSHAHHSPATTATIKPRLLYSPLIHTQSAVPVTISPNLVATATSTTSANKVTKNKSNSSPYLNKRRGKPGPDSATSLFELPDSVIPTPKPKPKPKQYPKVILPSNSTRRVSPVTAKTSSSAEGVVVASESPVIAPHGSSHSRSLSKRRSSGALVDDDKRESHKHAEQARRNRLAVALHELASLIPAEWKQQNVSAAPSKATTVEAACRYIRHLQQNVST
# Test: relative binding free energy (BET-seq); higher = weaker binding
# Details: reference: library average
row,Sequence,relative binding free energy [kcal/mol]
1,GCAATCACGTGGGGCG,0.08
2,GTGGGCACGTGAGAGT,0.18
3,GAGGTCACGTGTAGGA,0.33
4,CGGTGCACGTGGGGTG,-0.17
5,AGGGGCACGTGGGAGA,-0.3
6,ATACGCACGTGTTTTG,0.01
7,AGGTGCACGTGCAGGA,-0.02
8,GACGGCACGTGAAAGG,0.34
9,TCGGGCACGTGGTGTC,-0.21
10,GATTTCACGTGGATTA,0.24
11,GTAAGCACGTGTTCTT,-0.01
12,GATTGCACGTGGCGTT,-0.05
13,GGTGTCACGTGGCGGA,0.18
14,GGTATCACGTGTGGAT,0.3
15,TTGGGCACGTGTCATT,-0.07
16,TTAAGCACGTGATCTT,-0.07
17,GTGTGCACGTGGCAAT,-0.14
18,ACGTTCACGTGTTGAG,0.23
19,TCATTCACGTGGGTAA,0.21
20,TGGGTCACGTGGATCA,0.08
21,TGGGACACGTGTCGCT,0.05
22,TTAGGCACGTGTTTAA,0
23,GGATTCACGTGTTTGA,0.4
24,GCGAGCACGTGGGCGG,-0.18
25,TTTACCACGTGAGGTT,0.29
26,TTGTTCACGTGTGGGT,0.35

row,Sequence,relative binding free energy [kcal/mol]
1,TTTTACACGTGTTTAA,0.09
2,GTGGGCACGTGAATGC,0.04
3,GTTTTCACGTGCAGTG,0.21
4,TGGGGCACGTGTCTTT,-0.11
5,GTAGTCACGTGGTTCA,0.05
6,CAATGCACGTGTGTGG,0.02
7,CTGATCACGTGTATGG,0.22
8,TGGGCCACGTGGCAGT,-0.12
9,TCGAGCACGTGAGATT,0.39
10,AGAGGCACGTGGGCAT,-0.31
11,CGTGCCACGTGCGGGG,-0.24
12,GTAGTCACGTGTTGTG,0.09
13,GTGAGCACGTGAATTG,0.35
14,TCTTGCACGTGGTCTT,-0.07
15,AAGATCACGTGGAGGT,0.09
16,TGGCGCACGTGTTTAA,-0.13
17,TAAATCACGTGTAGTA,0.05
18,TGCATCACGTGCTGTG,0.2
19,TGGAGCACGTGCTTTT,-0.01
20,TACATCACGTGTGGCT,0.16
21,AGTTACACGTGTTACG,0.05
22,TGTGGCACGTGGTTTG,-0.06
23,CGGATCACGTGGGTGA,-0.02
24,GAGGGCACGTGGATCT,-0.04
25,TCGGGCACGTGTGGGA,0.02
26,AAGAACACGTGGGCGG,-0.09

row,Sequence,relative binding free energy [kcal/mol]
1,GGTTTCACGTGAATAA,0.39
2,GATGTCACGTGCGTTA,0.17
3,GTGGGCACGTGATGAA,0.12
4,GTAGACACGTGTTAAT,0.15
5,TAAGACACGTGGTGAA,0.14
6,TAGGACACGTGTGTGG,0.07
7,TATGGCACGTGGAGAG,-0.01
8,GTATTCACGTGGTTCT,0.11
9,TCGTTCACGTGTTTGC,0.3
10,GATGCCACGTGTTTTA,0.11
11,TCCGGCACGTGGGGGT,-0.31
12,GTGCTCACGTGCGTGG,0.14
13,TAAGACACGTGCGATG,0.14
14,GTTATCACGTGGGTGA,0.05
15,GGGTCCACGTGGGAGA,-0.05
16,GTGTTCACGTGTAACT,0.28
17,GGGGACACGTGGCGAG,0.04
18,TCTTGCACGTGAATGG,0.27
19,TCAGTCACGTGCAGGG,0.14
20,AATAGCACGTGTGGGT,0.07
21,TTTGTCACGTGTGACA,0.1
22,TAGCCCACGTGTTGGT,-0.01
23,AAGGTCACGTGTTTAT,0.16
24,TTCTACACGTGTCGTG,0.18
25,TTGGTCACGTGAGGCT,0.22
26,GCGTCCACGTGTGTTT,0.11

row,Sequence,relative binding free energy [kcal/mol]
1,GGTGACACGTGAAGGG,0.23
2,TTGGGCACGTGACTAT,-0.02
3,TTGTACACGTGTCCGG,0.18
4,TGTTTCACGTGGAAGG,0.14
5,GATTACACGTGGGGGA,0.1
6,TGAGCCACGTGATGGG,0.02
7,GTGACCACGTGTTTAG,0.09
8,ATTTCCACGTGATGTG,0.16
9,TTCGACACGTGTCGGT,0.14
10,ATATTCACGTGCGTAT,0.08
11,ATTTGCACGTGTCGTG,0.1
12,TGGGACACGTGGCTGA,-0.08
13,TCGGTCACGTGGGTTT,0.01
14,TACAACACGTGTTGTG,0
15,ATTTCCACGTGCGGGG,0.03
16,TTACTCACGTGGCGGT,0.06
17,ATATTCACGTGAATGT,0.31
18,TGAATCACGTGGGTCG,0.07
19,TTACACACGTGTTATG,0.06
20,CAGGGCACGTGTTAGG,-0.25
21,AACGTCACGTGATGGT,0.14
22,AGGCGCACGTGGCGGT,-0.3
23,AGAGTCACGTGCTGGG,-0.05
24,GCAGACACGTGAGGGG,0.21
25,AATCACACGTGTTTTG,0.08
26,GACAGCACGTGGGTTT,-0.1

row,Sequence,relative binding free energy [kcal/mol]
1,ATAAGCACGTGTGTGG,-0.12
2,TAATTCACGTGGATGA,0.33
3,TTAAGCACGTGAGGTA,0.25
4,GTGTACACGTGACGGT,0.12
5,AAGGGCACGTGCTGTT,-0.06
6,TCTGTCACGTGATGTT,0.24
7,TGTTCCACGTGGTATG,-0.07
8,CCGTACACGTGTTGTT,0.14
9,CATGTCACGTGGTAGA,0.01
10,AGTTACACGTGAGGTT,0.15
11,GGGGGCACGTGCTGTG,-0.27
12,GTGAGCACGTGTTTAG,-0.16
13,TTCGTCACGTGGGTCA,-0.09
14,TGAGGCACGTGCGTAG,-0.22
15,AATGCCACGTGTGGTA,-0.1
16,GGTAACACGTGTTTAT,0.04
17,AGATGCACGTGTTATA,-0.15
18,TGATTCACGTGGTAGC,0.19
19,GAGTGCACGTGAAGGA,0.3
20,CGGTGCACGTGTTCGG,0.01
21,TGATGCACGTGTGGGG,-0.09
22,GAGTGCACGTGGTAGA,0.1
23,TATTGCACGTGTTTCA,-0.03
24,TCGTGCACGTGTGGGT,0.06
25,GTCCTCACGTGTTGTT,0.36
26,TTATGCACGTGAGCGA,0.09

row,Sequence,relative binding free energy [kcal/mol]
1,TAGATCACGTGGGCAT,0.06
2,GGTGTCACGTGGCTGG,0.13
3,AAGGTCACGTGTGCGG,0.22
4,TTTTTCACGTGCGATG,0.25
5,AAGGACACGTGCTGTA,0.1
6,ATGATCACGTGAAGGT,0.39
7,TACGGCACGTGAGGTA,0.1
8,GTTTTCACGTGCTGGT,0.21
9,CACGGCACGTGGGTAG,-0.16
10,GTTTACACGTGCAGGG,0.14
11,CGTGTCACGTGGCCGG,-0.15
12,TGTTGCACGTGAGTAT,0.36
13,AAAAGCACGTGTGGGG,-0.05
14,AAAGTCACGTGCTGTT,0.15
15,ATGTGCACGTGCGGAG,-0.03
16,TACGTCACGTGAGGGA,0.34
17,GTAGGCACGTGGAGTT,0.02
18,GTACTCACGTGTGTAT,0.24
19,GGGGGCACGTGCTAGC,-0.26
20,GGTTGCACGTGGTCCG,-0.01
21,TTCGGCACGTGTTGGG,-0.03
22,GAACTCACGTGTGGGA,0.36
23,GTGGGCACGTGCGCGG,-0.2
24,GTGTACACGTGGATTA,0.05
25,AATGACACGTGAAGGT,0.13
26,CGGGTCACGTGCTGTG,-0.03

row,Sequence,relative binding free energy [kcal/mol]
1,CGTGACACGTGGTAGT,-0.06
2,GTGTGCACGTGATTCT,0.2
3,ATAGGCACGTGAAGAG,0
4,TTGGGCACGTGGCAAG,-0.18
5,AGTAGCACGTGATGGA,0.04
6,GGTAGCACGTGTAAAG,0.01
7,TCGTACACGTGAGTGG,0.27
8,CTGCTCACGTGTTTTT,0.22
9,GTGATCACGTGACGTT,0.13
10,GATGCCACGTGGTTAG,-0.13
11,TAGGACACGTGTTAGA,0.04
12,TAGTGCACGTGGCTTG,-0.18
13,GATGGCACGTGAGCGG,0.16
14,CAGAGCACGTGGTGTG,-0.21
15,TGTCTCACGTGTTATA,0.36
16,AAGTTCACGTGATTAG,0.37
17,TTAGTCACGTGATGAA,0.26
18,CTCGGCACGTGGGGTA,-0.24
19,TGGACCACGTGATGGG,0.11
20,TGGCGCACGTGGGGTT,-0.25
21,GGAATCACGTGCTTGT,0.07
22,GTGGACACGTGGAGTT,0.01
23,AATTTCACGTGAGAAT,0.37
24,TTGCTCACGTGTTGCA,0.2
25,GTTGACACGTGATATG,0.22
26,GAACGCACGTGGTGGG,-0.03

row,Sequence,relative binding free energy [kcal/mol]
1,GTCGGCACGTGCGTGT,-0.11
2,TGGACCACGTGGGGAT,-0.13
3,GAGGACACGTGTGCTA,0.27
4,GGGTGCACGTGGCAAT,-0.07
5,GGGCGCACGTGAAGGT,0.13
6,CAAGGCACGTGGTGTT,-0.15
7,TCTATCACGTGTGGTT,0.18
8,GATTACACGTGGGTTT,0.09
9,TTGAGCACGTGGATCT,-0.01
10,GGCTACACGTGGGAGG,0.19
11,TGAAGCACGTGACGGG,-0.04
12,TGCGGCACGTGCGTGG,-0.11
13,CTTGACACGTGGTATG,-0.09
14,TGGTTCACGTGATAAA,0.48
15,TGATACACGTGAGTTT,0.2
16,ATTGGCACGTGGTTGT,-0.19
17,AGTGGCACGTGTAAAT,-0.03
18,GGTGTCACGTGAATAC,0.49
19,TGGTGCACGTGCTTTC,0
20,TTAAACACGTGGATAG,0.1
21,TTTGTCACGTGTGTCT,0.19
22,TAGGGCACGTGGCGTC,-0.14
23,GGGGACACGTGTTGAT,0.05
24,TAGGGCACGTGTAGTG,-0.08
25,GGTAACACGTGTTCGG,0.15
26,ACGTACACGTGGGTGT,-0.03

row,Sequence,relative binding free energy [kcal/mol]
1,GTGTGCACGTGTTGCA,-0.19
2,AGTGGCACGTGGTCTG,-0.16
3,TGCGCCACGTGTTTGG,-0.15
4,AGGCGCACGTGGATGT,-0.09
5,GGTGGCACGTGTTAGA,-0.09
6,TAGATCACGTGTTATT,0.24
7,TAGAACACGTGTTGTT,0.11
8,GGAGACACGTGGTTTA,-0.03
9,AGGATCACGTGTTCGG,0.16
10,GGTGGCACGTGGGTGG,-0.14
11,TTAATCACGTGGTTTT,0.14
12,GAATTCACGTGGGCTG,0.3
13,TAAAACACGTGTGTTT,-0.08
14,GTTGTCACGTGCAGAA,0.19
15,TGTGTCACGTGGGGTT,0.07
16,GGTTACACGTGGGTAC,0.09
17,AATTACACGTGGTGGG,0.18
18,TAAGTCACGTGTAATG,0.08
19,ATTTGCACGTGGTAGA,-0.03
20,TGTCACACGTGGTTTG,-0.03
21,ATAAGCACGTGAAAGT,0.19
22,GGAGGCACGTGCGGGC,-0.08
